# Source: the RNAGym collection of RNA variant scans (doi:10.7554/elife.90254)
# Read counts are not given, so values of variants with three or more changes are uncertain.
# B1: LINE1-full (parent)
# chain: UACGUAGGUGGUUUUCCCCUGAUAGUGCUAAGGGGGCCUGGAAGUUUGGACUGGGCAGAGCUCAACACAGCGUGGCAAAGUGGCUGUGGCUAGACUGCCUCUCUGGAUUCCUCGUCACUCAGCAGGGCAUCUCUGAGAGAAAUGCC
# Variants of: B1
# Assay: self-cleavage, relative activity (ratio to wild type); higher = more cleavage; in vitro, sequencing; the parent is a self-cleaving ribozyme
row,Variant,self-cleavage
1,A43G G53A A69U A107G,0.05
2,U62C U81C U87A,0.05
3,A67G U85C U96A,0.14
4,U12G U26C A42G,0.8
5,C3U U9C U12C U52A,1.48
6,U52A A69U U73C G75U G106A G126A A129G,0.06
7,U15C A64G U91C,0
8,A31G U73A U102G A117U A124G,0
9,U26C A69C G93A C103A A136G,0.02
10,A30G U100C A129G A138U,2.3
11,C51U A57G A77G,0.76
12,U15C A42G A59U A79G G82A A121G,0.35
13,U12C G53A A69G U104C,0.3
14,A6G U81C U102C U109A,0.84
15,C17A A22G A50U U62C U91A A140G,0.09
16,A30G A64U U100C,0.57
17,A2U A77U A138U,0.79
18,G4A G34A A59U A67U A77G U87A A117G A138G,0.97
19,U9A U109C U115A,0.96
20,U14C A57G C76U U100A U112C A136U,0.35
21,U13C U52C A138U,2.3
22,A57G C76U U130C,1.8
23,U39A G88U U104C A140U,0.04
24,U14A A64U U81G U102A U132C,0.39

row,Variant,self-cleavage
1,G53A A64G A141G,0.2
2,U26C A142G U143G,0.63
3,A2G A43G A121G A138U,1.7
4,U14A A67U U143A,0.14
5,A43G C56A A64U G127C,0.06
6,U9C U62C U143G,0.1
7,U9C U29C G32C G88A,0.29
8,U13C U26C U52A U102C A136G,0.77
9,C68U U132C A136G,0.48
10,A22G A67G G80U U102C,0.55
11,G82A U96C G114A U132C,0.05
12,U13C A42G U62C A142G,0.07
13,A22G A50G A94G,0
14,U62C U115C C133A A140G,0.05
15,U5C G21A A31G A57G U81C A140U,0.77
16,U14C U39C A124G A141G,1.7
17,A31G U39A A121G A141G,2.6
18,U1C C61U A141G,0.05
19,A42G U119C A141G,2.4
20,G8A A59U A121U,0.85
21,U39C U87A U115C,0.47
22,U12C A69C A142G,0
23,U12G U73A A78G U109C,1.77
24,C63U A79U U91C U112C,0.25

row,Variant,self-cleavage
1,A57G C110A A136G,1.3
2,G33A A64G A129U,0.14
3,G25U U47A A77G A78G,1.88
4,A30G U96A U115A A124C,0.13
5,U91A A94C C120U,0.03
6,U13C U14C U23G A124U,0.92
7,G44C U52C C68A A141G,0.03
8,U13C U108A U112A,1.28
9,U14C A117U A141U,1.47
10,A64G A77G U130A,0.51
11,U5C U15C U46A A136G A138G,1.17
12,G74A U81G U119C,1.21
13,U13A U39A C71U A142G,0.62
14,U52C G58A U73C U85A A117U,0.02
15,U62A U115C U143C,0.02
16,A6G A43G C66U A77U A129U,0.13
17,A50U U87A U108A U109C U115A,0
18,A30G G34A A77G U81C U112A,0.77
19,C3U A59G A65G U115C C128U A129G A136G,0
20,U20C G32A A94G A136G,0.63
21,U9C U29C A43G A124G,1.58
22,C3U A67C U104A U115C,0.23
23,U12C G25U A69G A142G,0.48
24,A22U U26C U73A U87C,0.14

row,Variant,self-cleavage
1,C37U U47C A141G,2.26
2,U47C A67G C116U G125U,0.95
3,U14A U115C U130C,0.88
4,A2G G35A C145U,0.35
5,U12G C17A G33U A43G A141G,0.95
6,U52C C76A A141U,1.45
7,A65U U85C U87C U108C,0
8,U73C U102C U109C G114A,1.62
9,U5C U12C A31C U46C G58U U102C,0
10,G7A G25A U29C A57G,0.33
11,U52C G53A A59G A64G A129G U134A A136U,0.77
12,U9C A78G U112C,1.13
13,A78G G106U A136G,1.02
14,G4C U26G U45C A129G,1.38
15,U20A A42U A138G,0.95
16,U9A U23C U115A,1.19
17,U12G U39C A92U U132C,0.82
18,U14A U85C G97C,0.03
19,U87A C98A A138G A141G,0.07
20,U1C G4A A43G,1.09
21,A67G G80A U81A A129U,0.99
22,A24G A30G U46C G88A U134C A142G,0
23,U29C U39C U81A U112C C113U,0.86
24,U5A U91C A141G,0.74

row,Variant,self-cleavage
1,U13C U26C A67G C98U,0
2,G4A U46A U115C,1.01
3,A31U A43G U81G A138G,1.21
4,G74A A107G U112C,1.99
5,U12C G35C A50G A65U,0.21
6,U29C A124G A141G,1.15
7,U45C A78G U96A U132C,0
8,A121G U132A A142G,0.46
9,U39A A57G A94G,0
10,U14C A24U U87A,0.14
11,A64G U104C A138G,0.31
12,U9A U96C U108C,0.21
13,A77U A121G U130A U132A,1.32
14,C19U A64C A69G U109C,0
15,A64U A65G U73A U96G,0
16,G49U C110U U130C,1.09
17,G54C G60A U102A,0.03
18,G10A U23C A31G C99A U143C,0.61
19,U47C G70A C113U,0.11
20,A50G A67U C128U,0.07
21,U46A A94G U134C,0.19
22,A57U G60U A107G U115A A129G,0.02
23,U132C U134A U143A,0.47
24,A43U A69U U109C G144A,0.14

row,Variant,self-cleavage
1,U14C A22G A65U A107U A124G U130C,0.24
2,A6G U39C A50G A141G A142G,2.16
3,U46A U47A U96C,0.2
4,U23A A65U U134C,0.3
5,U14C U46A A140U,1.43
6,A64G G82A U130A,0.24
7,U100A A107U A129G,1.21
8,C37G U52C A107G U134A,1.41
9,U81A G127A A129G,2.1
10,U14C G21A C63A A142G,0.07
11,U12C U29C U87C U109C U143C,0.84
12,U39C A121U A141G,1.14
13,C16U U23C U81C U109C,1.84
14,G44A U45C G89U A121G U132C,0.04
15,U26A U47C C76U U85A,0.11
16,U20C A30G U115C,2.7
17,U46A U73A U134A,1.14
18,U12A U23C A57U,0
19,C110U A129U U130A,1.49
20,U5A C51A A77G,1.79
21,A65G C95U A117G,0
22,U12C U26A A65G,0.07
23,U9A U46G A59G A79U,0.07
24,U13C A57U G114A A142U,0.22

row,Variant,self-cleavage
1,U26C A30U U85C A129G,0.63
2,U14A U52C U73A,0.96
3,A78G U96C U130C,0
4,A65G U100A U115C,0.09
5,U12C U39A U115A,1.41
6,U62C A117G A138G,0
7,A2G A65G U109C,0.13
8,A43U U85C A94G,0
9,U29C C113A A124G,1.94
10,U14C U26C U46C A94G A136U,0
11,U26C A59G C101U,0.1
12,U87C A124U A129G,0
13,A6G A42G A117U A142U,0
14,C19U G32C U39C U96C A141G,0
15,A2G A77U A79G U96C U115C,0.57
16,G8C U12G A31G U47A U85A U115C,0.29
17,U15A A22G A67C A94U,0
18,A59C A121G A138G,1.31
19,G80C U81C A124G,0.44
20,C19U C37U U47C C56U U108C U130C,0.3
21,A69U U100C U115C U134C U143A,0.51
22,U81C U87A U132A,0.21
23,A2G G75U G126A,0.66
